Source: PubChem BioAssay AID588453 (National Center for Advancing Translational Sciences (NCATS), 2011)
“And” between values parts separate entries of the source, which are not always exact repeats. Identical values can stand only once. About 4,000 (1%) of roughly 390,000 compounds were called active. This list was built around the results that the source calls inconclusive (neither active nor inactive); the mix of calls is not that of the screen. The call rests on the fitted dose curve; in most records, active means well fitted inhibition curve with a large enough effect; inconclusive means small, poorly fitted or top-dose-only effect; inactive means no such curve, though single readings can be large or run the other way. A potency beside an inconclusive call is a rough fit, not a confirmed value.
Further: nearly all actives have a fitted effect of over 65% in size.
Potency means the concentration at half of the fitted maximal effect; tags describe the fitted curve by direction and shape.

What follows are molecules tested against Thioredoxin reductase 1, cytoplasmic (Rattus norvegicus) (UniProt O89049) (assay: qHTS Assay for Inhibitors of Mammalian Selenoprotein Thioredoxin Reductase 1 (TrxR1): qHTS). Conditions: recombinant rTrxR1, NADPH fluorescence consumption, selenite substrate; series mostly up to 114 µM.
UniProt O89049, sequence (O89049 whole entry, looked up): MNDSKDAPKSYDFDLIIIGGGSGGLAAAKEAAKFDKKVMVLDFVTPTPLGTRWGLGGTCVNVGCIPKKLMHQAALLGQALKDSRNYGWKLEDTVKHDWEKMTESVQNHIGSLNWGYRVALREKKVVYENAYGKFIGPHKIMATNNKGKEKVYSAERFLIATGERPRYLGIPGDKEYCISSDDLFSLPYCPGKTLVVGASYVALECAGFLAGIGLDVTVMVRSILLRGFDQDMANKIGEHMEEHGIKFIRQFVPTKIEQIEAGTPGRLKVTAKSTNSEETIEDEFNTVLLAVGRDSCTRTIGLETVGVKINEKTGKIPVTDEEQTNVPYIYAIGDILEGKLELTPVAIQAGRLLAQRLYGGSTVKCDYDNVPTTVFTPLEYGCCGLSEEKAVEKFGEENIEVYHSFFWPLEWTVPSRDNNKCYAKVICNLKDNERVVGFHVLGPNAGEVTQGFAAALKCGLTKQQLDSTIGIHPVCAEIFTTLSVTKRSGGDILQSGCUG
Procedure, shortened: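 Rat TrxR1 (90 nM in the dispensed reagent) was pre-reduced with 400 uM NADPH for 5 min at room temperature, then incubated with compound for 15 min. After 400 uM selenite was added, NADPH fluorescence (Ex 340/Em 450 nm) was followed for 8 min.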
For c1coc(CSSCc2ccco2)c1, the Potency was inconclusive: 39.8 µM [inhibitor, partial curve]. With COCCNCCCOc1ccc(C(C)(C)c2ccccc2)cc1 the Potency was inconclusive: 79.4 µM [inhibitor, partial curve, poor fit]. With O=C(CSc1nccn1Cc1ccccc1)Nc1ccc2c(c1)OCO2 the Potency was “inactive”. For COc1ccc(OC)c(C2C(C(=O)c3cccs3)=C(O)C(=O)N2CCN(C)C)c1 (centres undefined), the Potency was inconclusive: 50.1 µM [inhibitor, partial curve]. With CCOC(=O)c1cnc2c(-c3ccccc3)cnn2c1N the Potency was “inactive”. In the case of CN(C(=O)c1cc2c(=O)n3ccccc3nc2n1C)c1ccccc1, the Potency is reported as inconclusive: 70.8 µM [inhibitor, single point]. In the case of CC(=O)NCCn1ccc2ccccc21, the Potency is reported as “inactive”. In the case of Cc1cccc(Nc2c3c(nc4ncnn24)CCC3)c1, the Potency is reported as “inactive”. In the case of COc1ccc(C(=O)NC(=S)Nc2ccc(N3CCCC3)cc2)cc1OC, the Potency is reported as inconclusive: 3.98 µM [inhibitor, full curve]. With CC(=O)n1cc([C@@H]2C=C(C(=O)N3CCN(C)CC3)O[C@H](OCc3ccc(CO)cc3)C2)c2ccccc21 the Potency was inconclusive: 50.1 µM [inhibitor, partial curve]. With Cn1c(C(=O)NCCCN2CCCCCC2)cc2c(=O)n(C)c3ccccc3c21 the Potency was inconclusive: 50.1 µM [inhibitor, partial curve]. O=C1C[C@@H](c2ccccc2Cl)N1S(=O)(=O)c1ccccc1[N+](=O)[O-] was tested, and the Potency was “inactive”. COc1cc(/C=C2\N=C(c3c(-c4ccccc4)noc3C)OC2=O)ccc1OC(C)=O was tested, and the Potency was “inactive”. For O=C(N/N=C/c1ccc([N+](=O)[O-])o1)c1cc(-c2ccc(-c3ccccc3)cc2)nc2ccccc12, the Potency was inconclusive: 89.1 µM [inhibitor, single point]. Cc1ccc(C)c(CN2C(=O)c3ccccc3S(=O)c3ccc(C(=O)N4CCN(c5ccccn5)CC4)cc32)c1 (centres undefined) was tested, and the Potency was “inactive”. In the case of CCn1c(C)nc2cc(C(=O)NNS(=O)(=O)c3ccccc3F)ccc21, the Potency is reported as inconclusive: 79.4 µM [inhibitor, single point]. CC(C)OC(=O)c1cc2c(=O)[nH]c(C(Cl)(Cl)Cl)nc2o1 was tested, and the Potency was inconclusive: 35.5 µM [inhibitor, single point]. NC(=O)c1ccc(NC(=O)COc2coc(CN3CCc4ccccc4C3)cc2=O)cc1 was tested, and the Potency was inconclusive: 79.4 µM [inhibitor, single point]. In the case of Cc1c(NC(=S)NC(=O)c2ccc(COc3ccccc3)cc2)cccc1C(=O)O, the Potency is reported as inconclusive: 50.1 µM [inhibitor, partial curve]. With CCCCN(C(=O)c1ccc(-c2ccc(Cl)cc2)o1)c1c(N)n(CCC)c(=O)[nH]c1=O the Potency was inconclusive: 79.4 µM [inhibitor, single point]. For Cc1ccc(CNC(=O)c2cc(S(=O)(=O)N3CCCCCC3)cn2C)cc1, the Potency was “inactive”. Cc1ccc(NC(=O)CN2CCCC2c2cccs2)cc1S(=O)(=O)N1CCCCC1 (centres undefined) was tested, and the Potency was “inactive”. With CC(CC(=O)O)Nc1ccccc1O (centres undefined) the Potency was “inactive”. In the case of O=C(O)c1cc(NCc2cc(O)ccc2O)ccc1O, the Potency is reported as active: 39.8 µM. In the case of CNS(=O)(=O)c1ccc2c3c(cccc13)C(=O)N2, the Potency is reported as inconclusive: 39.8 µM [inhibitor, single point]. With CCCCC(=O)OC1=C(C(=O)c2ccccc2)N(CC)S(=O)(=O)c2ccccc21 the Potency was inconclusive: 11.2 µM [inhibitor, partial curve, poor fit]. In the case of COC(=O)CN1C(=S)N(c2ccc(OC)cc2)C(=O)/C1=C/c1ccc(N2CCOCC2)cc1, the Potency is reported as “inactive”. In the case of O=C(Oc1oc(-c2ccco2)nc1C=Nc1ccccc1)c1ccoc1, the Potency is reported as active: 3.55 µM. In the case of Cc1ccc(OCCn2nnc3ccccc32)cc1C, the Potency is reported as “inactive”. With Cc1cc(C)c(NC(=O)/C(=C/c2ccco2)c2ccccc2)c(C)c1 the Potency was inconclusive: 89.1 µM [inhibitor, single point]. With Fc1ccccc1N1CCN(C(c2ccncc2)c2nnnn2C2CCCC2)CC1 (centres undefined) the Potency was inconclusive: 25.1 µM [inhibitor, full curve]. With O=c1c2ccccc2c(-c2n[nH]c(=S)o2)nn1Cc1ccccc1 the Potency was inconclusive: 70.8 µM [inhibitor, single point]. For CC(=O)C1(C)OC(N)=C(C#N)C(c2ccccc2)C1(C#N)C#N (centres undefined), the Potency was inconclusive: 10 µM [inhibitor, full curve]. In the case of CSc1sc(-c2ccnc(=S)[nH]2)c(-c2ccccc2)c1C#N, the Potency is reported as inconclusive: 31.6 µM [inhibitor, partial curve, poor fit]. For Cc1cccc(-n2c3nc(=O)[nH]c(=O)c-3cc3c(C)nn(-c4ccccc4)c32)c1C, the Potency was inconclusive: 70.8 µM [inhibitor, single point] and inconclusive: 100 µM [inhibitor, single point]. For COc1ccc(NC(=S)NC(=O)c2csnn2)cc1, the Potency was inconclusive: 39.8 µM [inhibitor, partial curve, poor fit]. In the case of CNC(=O)c1c(NC(=O)CCS(=O)(=O)c2ccc(F)cc2)sc(C)c1C, the Potency is reported as inconclusive: 50.1 µM [inhibitor, partial curve]. In the case of Cc1ccc(C(=O)NC(=S)NNC(=O)COc2ccc([N+](=O)[O-])cc2)cc1, the Potency is reported as inconclusive: 39.8 µM [inhibitor, single point]. For COc1cc2c(C(=O)N(C)c3cc(Cl)ccc3OC)cn(CC(C)C)c(=O)c2cc1OC, the Potency was inconclusive: 89.1 µM [inhibitor, single point]. For Cc1ccccc1C(=O)NC(=S)NC1CC1, the Potency was inconclusive: 50.1 µM [inhibitor, partial curve]. NCCCCN was tested, and the Potency was inconclusive: 0.947 µM [inhibitor, full curve, poor fit]. For Cc1nn(-c2cc(N3CCNCC3)ccc2[N+](=O)[O-])c(=O)c2ccccc12, the Potency was inconclusive: 20 µM [inhibitor, single point]. CCOc1ccc(S(=O)(=O)N2CCN(Cc3ccccc3)CC2)c2cccnc12 was tested, and the Potency was inconclusive: 70.8 µM [inhibitor, partial curve]. In the case of O=C(CN1CCCC1)Nc1ccccc1Sc1ccccc1, the Potency is reported as “inactive”. For CC(C)(C)c1ccc2c(c1)OC(C(=O)N/N=C\c1ccc[nH]1)CO2 (centres undefined), the Potency was “inactive”. In the case of Cc1ccc(-c2nc(CS(=O)CC(=O)NCc3ccco3)c(C)o2)cc1 (centres undefined), the Potency is reported as inconclusive: 79.4 µM [inhibitor, partial curve, poor fit]. For Cc1cccc(N2CCN(C(=O)/C=C/c3ccco3)CC2)c1C, the Potency was inconclusive: 31.6 µM [inhibitor, single point]. O=S(=O)(Nc1ccc(-n2cccc2)cc1)c1ccc(Cl)c(Cl)c1 was tested, and the Potency was “inactive”. For Cc1ccc2c(c1)c1ncnc(N3CCN(c4ccccc4)CC3)c1n2C, the Potency was “inactive”. In the case of CCOc1ccc(NC(=O)Nc2cc(C)ccc2F)cc1, the Potency is reported as “inactive”. With Cc1nn(-c2cccc(Cl)c2)c2c1C(c1ccncc1)C(C#N)=C(N)O2 (centres undefined) the Potency was inconclusive: 39.8 µM [inhibitor, partial curve]. O=C(COC(=O)c1ccc([N+](=O)[O-])o1)NCc1ccccc1 was tested, and the Potency was inconclusive: 20 µM [inhibitor, partial curve, poor fit]. With COC(=O)c1ccc(NC(=O)CCS(=O)(=O)c2ccc3c(c2)NC(=O)C(C)S3)cc1 (centres undefined) the Potency was “inactive”. With O=C(CSc1ncnc2c1oc1ccccc12)NCc1ccco1 the Potency was inconclusive: 31.6 µM [inhibitor, partial curve]. With O=C(NC1CC1)C1=C[C@@H](c2ccccc2)C[C@@H](OCCCCO)O1 the Potency was inconclusive: 31.6 µM [inhibitor, single point]. For O=C(NCCc1nc2ccccc2[nH]1)/C(=C/c1ccco1)NC(=O)c1ccc(Br)cc1, the Potency was inconclusive: 79.4 µM [inhibitor, single point]. CS(=O)(=O)c1ccc2nc(NC(=O)c3ccc(Cn4cc(Br)cn4)o3)sc2c1 was tested, and the Potency was inconclusive: 89.1 µM [inhibitor, partial curve, poor fit]. In the case of COc1cc(CNc2ccc3[nH]c(=O)[nH]c3c2)cc(Cl)c1OCc1ccccc1F, the Potency is reported as inconclusive: 79.4 µM [inhibitor, single point]. O=C(NC(=S)NCCSc1ccccc1)c1cccnc1 was tested, and the Potency was inconclusive: 35.5 µM [inhibitor, single point]. In the case of NC(CC(=O)O)c1ccc(Br)cc1 (centres undefined), the Potency is reported as inconclusive: 89.1 µM [inhibitor, single point]. Cc1ccc(-n2c(Cl)c(Cl)nc(Cl)c2=O)cc1 was tested, and the Potency was inconclusive: 0.562 µM [inhibitor, full curve]. For CCc1ccc(N(CC(=O)NC2CC2)S(=O)(=O)c2ccc(C)cc2)cc1, the Potency was inconclusive: 79.4 µM [inhibitor, partial curve, poor fit]. For CCCCNC(=O)CS(=O)Cc1nc(-c2cccc(Cl)c2)oc1C (centres undefined), the Potency was active: 14.1 µM. With CN(CC(=O)Nc1c(Cl)cccc1Cl)C(=O)Cc1cccs1 the Potency was inconclusive: 70.8 µM [inhibitor, single point]. With CN(C(=O)COC(=O)c1cc2ccccc2cc1O)c1c(N)n(Cc2ccccc2)c(=O)[nH]c1=O the Potency was “inactive”. In the case of O=C(Nc1cccc(-c2nc3ccccc3o2)c1)c1cc([N+](=O)[O-])ccc1N1CCOCC1, the Potency is reported as “inactive”. With CC(=O)Nc1ccc(S(=O)(=O)N(C)CC(=O)OCC(=O)N2CCN(C(=O)c3ccco3)CC2)cc1 the Potency was inconclusive: 25.1 µM [inhibitor, single point]. CC1=CC(C)(C)NC(=S)N1c1ccccc1C was tested, and the Potency was “inactive”. For COc1cc(O)ccc1C1CC(=O)Nc2c1c(=O)nc(SCc1ccccc1C)n2C (centres undefined), the Potency was “inactive”.
